# Measurements from the supplement of paper PMC8728848.
# The list shows a part of the results.
# B1: PX14379A-bvu-539-28-539 (Bacteroides vulgatus) (protein)
# chain: EPYSEIIEEDYVPTEADEIALLATTYSQLRFVMDWYGLFDLQEESGDVIVTPTRPNGWDDGGTYKQMHKHTWDNQQGQPQSIWDYCYKGIANANKILKRADEGFFTEESKPKVVAEVKGVRALWYSILCDTHGNIPIQTSFSEEVPVQSTRKQVFDFIINELKEVMPNLPTEVNKSTYGRLTQWGAKCLMARMYLNAGVYTGTPMWNECLEQCNDIINSGLFSLETNYTDIFKTENSGCVETIFAIPYDEVYNEGDNNGPVFGAHMKFLSSNSRKVFNMQTTPWGGSAANPQFINSYDPDDMRLKYTWLQGDQYSPDGVLITTFPNKLPSIYKTDTDDGYRVGKYEIKVGAKSLLSNDFPYFRYTEVLLMKAECLLRLGQNETEAAHIVSQIRERAFRESAHPEKATVDAAWLKGDTHINYGTLDEKGQIDDAGNTEVVELGGLYDEWGWEFAAEARRRTDMIRFGTYQKKSWFNHTPTANDLNGNSILFPIHLDHLNTNPNLQQNPGYAGK
# How the values were obtained:
# Assay in all cases: glycan array binding signal (z-score within array); higher = stronger binding
# Settings in all cases: glycan notation: IUPAC condensed, linker removed
# [1] = target: GalNAc(b1-4)GlcNAc(b1-2)Man
# Outline: (§1)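 Glycan array data came from 3228 arrays in the Consortium for Functional Glycomics database, and only arrays with an available protein sequence were kept. Glycan names were put into IUPAC-condensed notation, and columns mapping to the same glycan were averaged. The binding signal is a within-array Z-score, averaged across arrays of one protein sequence run at different concentrations or buffers and across linkers. A negative Z-score can be read as non-binding.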
# [2] = target: GalNAc(b1-4)GlcNAc(b1-2)Man(a1-3)[GalNAc(b1-4)GlcNAc(b1-2)Man(a1-6)]Man(b1-4)GlcNAc(b1-4)GlcNAc
# Outline: as §1
# [3] = target: GalNAc(b1-4)GlcNAc(b1-3)GalNAc(b1-4)GlcNAc
# Outline: as §1
# GalNAc(b1-4)GlcNAc6S = target: GalNAc(b1-4)GlcNAc6S
# Outline: as §1
# GalNAc(b1-6)GalNAc = target: GalNAc(b1-6)GalNAc
# Outline: as §1
# GalNAc3S(b1-4)GlcNAc = target: GalNAc3S(b1-4)GlcNAc
# Outline: as §1
# GalNAc3S(b1-4)GlcNAc3S = target: GalNAc3S(b1-4)GlcNAc3S
# Outline: as §1
# [4] = target: GalNAc3S(b1-4)[Fuc(a1-3)]GlcNAc
# Outline: as §1
# GalNAc4S6S(b1-4)GlcNAc = target: GalNAc4S6S(b1-4)GlcNAc
# Outline: as §1
# GalNAc6S(b1-4)GlcNAc = target: GalNAc6S(b1-4)GlcNAc
# Outline: as §1
# Glc(a1-4)Glc = target: Glc(a1-4)Glc
# Outline: as §1
# [5] = target: Glc(a1-4)Glc(a1-4)Glc(a1-4)Glc
# Outline: as §1
# Glc(a1-6)Glc(a1-6)Glc = target: Glc(a1-6)Glc(a1-6)Glc
# Outline: as §1
# [6] = target: Glc(a1-6)Glc(a1-6)Glc(a1-6)Glc
# Outline: as §1
# Glc(b1-4)Glc = target: Glc(b1-4)Glc
# Outline: as §1
# Glc(b1-6)Glc = target: Glc(b1-6)Glc
# Outline: as §1
# GlcA(b1-3)Gal = target: GlcA(b1-3)Gal
# Outline: as §1
# GlcA(b1-3)GlcNAc = target: GlcA(b1-3)GlcNAc
# Outline: as §1
# GlcA(b1-6)Gal = target: GlcA(b1-6)Gal
# Outline: as §1
# [7] = target: GlcA3S(b1-3)Gal(b1-4)GlcNAc(b1-2)Man
# Outline: as §1
# [8] = target: GlcA3S(b1-3)Gal(b1-4)GlcNAc(b1-3)Gal(b1-4)Glc
# Outline: as §1
# [9] = target: GlcNAc(a1-3)Gal(b1-4)GlcNAc
# Outline: as §1
# [10] = target: GlcNAc(a1-4)Gal(b1-3)GlcNAc
# Outline: as §1
# [11] = target: GlcNAc(a1-4)Gal(b1-4)GalNAc
# Outline: as §1
# [12] = target: GlcNAc(a1-4)Gal(b1-4)GlcNAc
# Outline: as §1
# [13] = target: GlcNAc(a1-4)Gal(b1-4)GlcNAc(b1-3)Gal(b1-4)Glc
# Outline: as §1
# [14] = target: GlcNAc(a1-4)Gal(b1-4)GlcNAc(b1-3)Gal(b1-4)GlcNAc
# Outline: as §1
# [15] = target: GlcNAc(a1-4)Gal(b1-4)GlcNAc(b1-3)Gal(b1-4)GlcNAc(b1-3)Gal(b1-4)GlcNAc
# Outline: as §1
# [16] = target: GlcNAc(a1-4)Gal(b1-4)GlcNAc(b1-3)Gal(b1-4)[Fuc(a1-3)]GlcNAc(b1-3)Gal(b1-4)[Fuc(a1-3)]GlcNAc
# Outline: as §1
# [17] = target: GlcNAc(a1-6)Gal(b1-4)GlcNAc
# Outline: as §1
# [18] = target: GlcNAc(b1-2)Gal(b1-3)GalNAc
# Outline: as §1
# [19] = target: GlcNAc(b1-2)Man(a1-3)[GlcNAc(b1-2)Man(a1-6)]Man(b1-4)GlcNAc(b1-4)GlcNAc
# Outline: as §1
# [20] = target: GlcNAc(b1-2)Man(a1-3)[GlcNAc(b1-2)Man(a1-6)]Man(b1-4)GlcNAc(b1-4)[Fuc(a1-6)]GlcNAc
# Outline: as §1
# [21] = target: GlcNAc(b1-2)Man(a1-3)[GlcNAc(b1-4)][GlcNAc(b1-2)Man(a1-6)]Man(b1-4)GlcNAc(b1-4)GlcNAc
# Outline: as §1
# [22] = target: GlcNAc(b1-2)Man(a1-3)[GlcNAc(b1-4)][GlcNAc(b1-2)Man(a1-6)]Man(b1-4)GlcNAc(b1-4)[Fuc(a1-6)]GlcNAc
# Outline: as §1
# [23] = target: GlcNAc(b1-2)[GlcNAc(b1-4)]Man(a1-3)[GlcNAc(b1-2)Man(a1-6)]Man(b1-4)GlcNAc(b1-4)GlcNAc
# Outline: as §1
# [24] = target: GlcNAc(b1-2)[GlcNAc(b1-4)]Man(a1-3)[GlcNAc(b1-4)][GlcNAc(b1-2)Man(a1-6)]Man(b1-4)GlcNAc(b1-4)GlcNAc
# Outline: as §1
# [25] = target: GlcNAc(b1-2)[GlcNAc(b1-4)]Man(a1-3)[GlcNAc(b1-4)][GlcNAc(b1-2)[GlcNAc(b1-6)]Man(a1-6)]Man(b1-4)GlcNAc(b1-4)GlcNAc
# Outline: as §1
# [26] = target: GlcNAc(b1-2)[GlcNAc(b1-4)]Man(a1-3)[GlcNAc(b1-4)][GlcNAc(b1-2)[GlcNAc(b1-6)]Man(a1-6)]Man(b1-4)GlcNAc(b1-4)[Fuc(a1-6)]GlcNAc
# Outline: as §1
# [27] = target: GlcNAc(b1-2)[GlcNAc(b1-6)]Man(a1-6)[GlcNAc(b1-2)Man(a1-3)]Man(b1-4)GlcNAc(b1-4)GlcNAc
# Outline: as §1
# [28] = target: GlcNAc(b1-2)[GlcNAc(b1-6)]Man(a1-6)[GlcNAc(b1-2)Man(a1-3)]Man(b1-4)GlcNAc(b1-4)[Fuc(a1-6)]GlcNAc
# Outline: as §1
# [29] = target: GlcNAc(b1-2)[GlcNAc(b1-6)]Man(a1-6)[GlcNAc(b1-4)][GlcNAc(b1-2)Man(a1-3)]Man(b1-4)GlcNAc(b1-4)GlcNAc
# Outline: as §1
# GlcNAc(b1-3)Fuc = target: GlcNAc(b1-3)Fuc
# Outline: as §1
# GlcNAc(b1-3)Gal = target: GlcNAc(b1-3)Gal
# Outline: as §1
# [30] = target: GlcNAc(b1-3)Gal(b1-3)GalNAc
# Outline: as §1
binder,measurement,setting,value
B1,glycan array binding signal (z-score),[1],-0.549
same,glycan array binding signal (z-score),[2],-0.102
same,glycan array binding signal (z-score),[3],2.28
same,glycan array binding signal (z-score),GalNAc(b1-4)GlcNAc6S,-0.334
same,glycan array binding signal (z-score),GalNAc(b1-6)GalNAc,-0.384
same,glycan array binding signal (z-score),GalNAc3S(b1-4)GlcNAc,-0.46
same,glycan array binding signal (z-score),GalNAc3S(b1-4)GlcNAc3S,-0.149
same,glycan array binding signal (z-score),[4],0.013
same,glycan array binding signal (z-score),GalNAc4S6S(b1-4)GlcNAc,-0.399
same,glycan array binding signal (z-score),GalNAc6S(b1-4)GlcNAc,2.64
same,glycan array binding signal (z-score),Glc(a1-4)Glc,-0.369
same,glycan array binding signal (z-score),[5],-0.043
same,glycan array binding signal (z-score),Glc(a1-6)Glc(a1-6)Glc,-0.415
same,glycan array binding signal (z-score),[6],-0.152
same,glycan array binding signal (z-score),Glc(b1-4)Glc,-0.49
same,glycan array binding signal (z-score),Glc(b1-6)Glc,0.212
same,glycan array binding signal (z-score),GlcA(b1-3)Gal,-0.228
same,glycan array binding signal (z-score),GlcA(b1-3)GlcNAc,-0.262
same,glycan array binding signal (z-score),GlcA(b1-6)Gal,-0.175
same,glycan array binding signal (z-score),[7],-0.575
same,glycan array binding signal (z-score),[8],-0.319
same,glycan array binding signal (z-score),[9],-0.519
same,glycan array binding signal (z-score),[10],-0.151
same,glycan array binding signal (z-score),[11],-0.451
same,glycan array binding signal (z-score),[12],-0.238
same,glycan array binding signal (z-score),[13],-0.444
same,glycan array binding signal (z-score),[14],-0.358
same,glycan array binding signal (z-score),[15],-0.277
same,glycan array binding signal (z-score),[16],0.057
same,glycan array binding signal (z-score),[17],-0.313
same,glycan array binding signal (z-score),[18],-0.228
same,glycan array binding signal (z-score),[19],-0.32
same,glycan array binding signal (z-score),[20],-0.089
same,glycan array binding signal (z-score),[21],-0.315
same,glycan array binding signal (z-score),[22],-0.404
same,glycan array binding signal (z-score),[23],-0.48
same,glycan array binding signal (z-score),[24],-0.252
same,glycan array binding signal (z-score),[25],-0.493
same,glycan array binding signal (z-score),[26],-0.268
same,glycan array binding signal (z-score),[27],-0.233
same,glycan array binding signal (z-score),[28],-0.294
same,glycan array binding signal (z-score),[29],-0.158
same,glycan array binding signal (z-score),GlcNAc(b1-3)Fuc,-0.23
same,glycan array binding signal (z-score),GlcNAc(b1-3)Gal,-0.266
same,glycan array binding signal (z-score),[30],-0.27
